Among all 110,000 compounds or so, about 230 (0.21%) showed an effect of 50% or more. The list shows a part of the results.
Molecular target: DPAP1 (Plasmodium falciparum, UniProt Q8IIJ9)
Assay: primary screen, percent inhibition; read by cleavage of a fluorogenic dipeptide substrate; higher = more effect of the substance
Parameters: species or system P. falciparum D10 trophozoite lysates; single well
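Also: 30 min substrate incubation versus DMSO and 10 µM JCP410 controls.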

Sequence of DPAP1 (Q8IIJ9 whole entry, looked up): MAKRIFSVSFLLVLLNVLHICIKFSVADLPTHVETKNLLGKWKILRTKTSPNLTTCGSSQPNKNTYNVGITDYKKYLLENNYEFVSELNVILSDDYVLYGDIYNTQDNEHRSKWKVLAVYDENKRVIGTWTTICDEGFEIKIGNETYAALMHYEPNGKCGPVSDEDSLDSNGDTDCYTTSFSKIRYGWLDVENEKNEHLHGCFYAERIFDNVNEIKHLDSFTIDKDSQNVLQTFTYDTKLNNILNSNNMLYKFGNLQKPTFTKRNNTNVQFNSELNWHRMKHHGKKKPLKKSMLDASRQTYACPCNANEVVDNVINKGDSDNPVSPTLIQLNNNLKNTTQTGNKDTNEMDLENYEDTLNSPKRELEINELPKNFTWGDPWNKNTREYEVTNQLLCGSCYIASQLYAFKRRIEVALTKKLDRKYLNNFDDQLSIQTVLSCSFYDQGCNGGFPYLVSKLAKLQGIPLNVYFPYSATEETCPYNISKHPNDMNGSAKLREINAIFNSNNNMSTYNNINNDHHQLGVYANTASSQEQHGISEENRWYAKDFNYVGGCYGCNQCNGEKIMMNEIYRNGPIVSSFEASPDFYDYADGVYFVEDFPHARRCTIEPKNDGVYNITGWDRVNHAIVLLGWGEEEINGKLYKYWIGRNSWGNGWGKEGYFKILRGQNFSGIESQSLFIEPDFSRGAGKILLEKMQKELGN

Structure (SMILES)	% Inhibition @ 10 uM [%]
Cc1cc(C)nc(NS(=O)(=O)c2ccc(NC(=O)c3ccc(Cl)cc3Cl)cc2)n1	-0.949
O=C(CCn1c(=O)c2cccn2c2cccnc21)NCCN1CCOCC1	-1.86
CCCCN(C)c1nc2c(-c3cccc(Br)c3)nnn2c2ccccc12	-6.85
Cc1ccccc1CCNC(=O)Cn1nc(C)c2c(C)n(-c3ccccc3)nc2c1=O	0.0496
CCCS(=O)(=O)N1CCN(S(=O)(=O)c2ccc(OC)cc2)CC1	-3.06
CCOc1ccc(N2C(=O)CC(N3CCN(c4ccccc4OC)CC3)C2=O)cc1 (stereo not shown)	0.709
N#Cc1c(-c2ccccc2)cc(-c2ccco2)c(C#N)c1N	1.54
Cc1ccc(N2C(=O)C(NC(=O)C(C)(C)C)(C(F)(F)F)C3=C2CC(C)(C)CC3=O)cc1 (stereo not shown)	3.74
COCCN1Cc2cccc(C(=O)NCc3ccc(C)cc3)c2C1=O	-2.29
COc1ccccc1C(=O)NCCC(C)C	1.83
CC1=C(C(=O)Nc2cccnc2)C(c2cccnc2)n2nc(SCc3ccccc3F)nc2N1 (stereo not shown)	1.52
CN(C1CCCCC1)S(=O)(=O)N1CCCC(C(=O)NCc2ccco2)C1 (stereo not shown)	-1.97
CSc1nc2c(c(=O)n1Cc1ccccc1)C1(CCCCC1)Cc1ccccc1-2	1.42
N#CC1=C(N)OC2=C(C(=O)CCC2)C1c1ccc(Br)cc1 (stereo not shown)	-3.72
CC1(C)Cc2c(c(N3CCOCC3)nc3sc(-c4cc(C(=O)O)co4)c(N)c23)CO1	-5.41
Cc1cc2nc(O)c(O)nc2cc1S(=O)(=O)N1CCCCC1C (stereo not shown)	0.107
Cc1ccc(NC(=O)c2cnn3c2NC(C2CC2)CC3C(F)F)cc1 (stereo not shown)	-9.25
Cc1cc(C(F)F)n2nc(C(=O)NCc3ccccc3C(F)(F)F)nc2n1	1.86
CC(CCc1ccccc1)NC(=O)CCn1ccc2cc(S(=O)(=O)N3CCCC3)ccc21 (stereo not shown)	0.756
COc1ccc(C2C(C#N)=C(N)Oc3c2sc2ccccc32)c(OC)c1 (stereo not shown)	-2.07
CCn1c(C(=O)NC2CCCC2)cc2oc3ccccc3c21	1.22
CC1=C(CCN2CCCC2CO)C(C)(C)CCC1 (stereo not shown)	3.35
COc1ccccc1NC(=O)c1c(NC(=O)Cc2ccccc2)sc2c1CCC2	-2.58
CC(C)C[C@H](NC(=O)c1cccc(CN)c1)C(=O)NNC(=O)c1csc([C@H](CC(C)C)NC(=O)OCc2ccccc2)n1	0.744
CCCCN(CC)CCNC(=O)CCS(=O)(=O)c1cccc2nonc12	3.61

Structure (SMILES)	% Inhibition @ 10 uM [%]
Cc1cc2c(c(=O)o1)C(c1ccc(F)cc1F)C(C#N)=C(N)O2 (stereo not shown)	3.1
COc1ccc(CN2CCN(Cc3ccccc3OC)CC2)cc1Br	15.7
CC(Cc1ccccc1F)NN1CCOCC1 (stereo not shown)	-5.31
CCOC(=O)C1=C(C)N=c2s/c(=C\c3ccccc3F)c(=O)n2C1c1ccccc1F (stereo not shown)	-1.85
COc1ccc(CNC(=O)c2cn(C3CCCC3)c(=O)c3c2c2ccccc2n3C)c(OC)c1	0.163
CC/C(=N\N=C1\SC(C)C(=O)N1Cc1ccco1)c1ccccc1 (stereo not shown)	-1.24
Cc1cc2nc(-c3c(O)c4ccccc4n(C)c3=O)[nH]c2cc1C	1.84
CCOc1ccnc(CSc2nc(C)cc(C)n2)c1C	0.843
Cc1ccc(S(=O)(=O)c2nnn3c2nc(N2CCN(Cc4ccccc4)CC2)c2ccccc23)cc1	-1.87
O=C1c2ccccc2C(O)(Cc2ccccc2)N1CC1CCCO1 (stereo not shown)	-0.759
CC(=O)N1CCN(CCC2=C(C)CCCC2(C)C)CC1	-3.42
Cc1c(C(=O)NCCN2CCN(C)CC2)oc2ccc3c(c12)C(=O)CC1(CCCCC1)O3	-6.58
Cc1ccc(-c2noc(CCC(=O)NCCc3ccc(Cl)cc3)n2)cc1	2.42
O=[N+]([O-])c1ccc(NC2CCCc3ccccc32)nc1 (stereo not shown)	0.565
COc1cc(CCNC(=O)CCc2nc3cccnc3n2-c2ccccc2)cc(OC)c1OC	-2.88
COc1ccc(Br)cc1C1C2=C(O)CC(C)(C)CC2=NC(C)=C1C(=O)N1CCOCC1 (stereo not shown)	1.86
CC(C)c1ccc(C2C(C(=O)c3ccccc3)=C(O)C(=O)N2CCCN2CCOCC2)cc1 (stereo not shown)	-6.81
O=S(=O)(Nc1ccc(Cl)cc1)c1ccc(F)cc1	1.83
COCCCNC(=O)c1cc(S(=O)(=O)N2CCC3(CC2)OCCO3)ccc1F	3.04
O=C(O)C1C2CCC(C2)C1C(=O)Nc1ccccc1 (stereo not shown)	-0.996
COc1ccccc1OCc1ccc(C(=O)NCC(C)C)o1	-8.95
CCOc1ccc(-c2c(C)sc3ncn(CC(=O)O)c(=O)c23)cc1	-1.18
S=c1n(-c2ccccc2)cnn1CN1CCCCC1	-2.42
COc1ccc(C2NC(=O)NC(C)=C2C(=O)OCCOc2ccccc2)c(OC)c1 (stereo not shown)	2.45
CCOc1ccccc1C1C2=C(O)CC(C)(C)CC2=Nc2nc(C(F)(F)F)nn21 (stereo not shown)	-5.43

Structure (SMILES)	% Inhibition @ 10 uM [%]
Cc1ccc(-n2cc(-c3ccccc3)c3c(NCCCN4CCOCC4)ncnc32)cc1	-2.84
COc1ccc(CCC(=O)Nc2cc(C)ccc2C)cc1	-1.2
N#Cc1nc(/C=C/c2ccc(F)cc2)oc1NCc1cccnc1	2.54
Cc1cccc2c(C(=O)O)c3c(nc12)CCCCC3	1.67
Cc1ccccc1CNC(=O)Cn1ncc2ccccc21	-5.32
Cc1ccccc1C(=O)NCCc1csc2nc(-c3ccccc3)nn12	3.05
CC(C)(C)C(=O)NC1(C(F)(F)F)N=C2SCCN2C1=O (stereo not shown)	-3.53
Cc1cc(N2CCC(C(=O)N3CCOCC3)CC2)n2nc(C)c(-c3ccc(Cl)cc3)c2n1	-3.7
COc1ccc(NC(=O)C2CC=CCC2C(=O)OCC2CCCO2)cc1 (stereo not shown)	-1.91
Cc1c(C(=O)NCC(=O)O)c(-c2ccccc2)nn1-c1ccccc1	0.716
Cc1ccc(S(=O)(=O)N(CCc2ccccc2)CC(=O)N2CCCC2)cc1	2.17
CCN1CCN(CCCNC(=O)c2oc3ccc(S(=O)(=O)N4CCOCC4)cc3c2C)CC1	1.16
Cc1sc(NS(=O)(=O)c2ccc(Br)cc2)nc1-c1ccccc1	5.44
O=C(Nc1cccc2c1C(=O)c1ccccc1C2=O)c1ccco1	-0.197
CSc1cccc(NC2CN3CCC2CC3)c1 (stereo not shown)	-1.82
CCOP(=O)(OCC)C(Nc1ccc(Br)cc1)c1c[nH]c2ccccc12 (stereo not shown)	-3.38
CN(C)c1nc(N)c2c(ncn2C)n1	2.06
CCN(CC)C(=O)Cn1cc(S(=O)(=O)Cc2c(F)cccc2Cl)c2ccccc21	6.05
OC(c1ccccc1)c1ccc2c(c1)c1c3n2CCNC3CCC1 (stereo not shown)	-10.8
COc1cccc(C2=NC(C)=C(C#N)C(C(F)(F)F)(C(F)(F)F)N2)c1	-5.2
CCOC(=O)c1cnc(-c2ccccc2)nc1-c1ccncc1	-1.03
CC(=O)N1CCC2(CC1)OC(=O)C(C)=C2C(=O)NCCN(C)C1CCCCC1	-1.58
Cc1ccc(-c2cc(C(=O)Nc3ccncc3)c3ccccc3n2)o1	-3.45
Cc1nn(Cc2ccc(Cl)cc2Cl)c(C)c1NC(=O)C1C2CCC(O2)C1C(=O)O (stereo not shown)	4.74
Cc1nc(O)c2cnn(-c3ccccc3)c2n1	-5.32

Structure (SMILES)	% Inhibition @ 10 uM [%]
Cn1cc(C2N3CC4(C)CN2CC(C)(C3)C4O)c2ccccc21 (stereo not shown)	-1.33
CCOc1ccc(NC(=O)c2cc([N+](=O)[O-])ccc2Cl)c([N+](=O)[O-])c1	-6.11
COc1cccc(N2C(=O)c3ccccc3C2=O)c1	10.6
CCOC(=O)C1=C(C)N=c2s/c(=C\c3sccc3C)c(=O)n2C1c1ccc(OC)c(OC)c1 (stereo not shown)	1.52
Cc1sc2nc(-c3ccccc3)nc(O)c2c1C	3.65
CN(C)c1ccc(NC=C2C(=O)NC(=O)NC2=O)cc1	5.32
Cc1cc(N)n(-c2ccccc2C(=O)O)n1	-2.97
Cc1ccc(/C=C2\C(=N)N3N=C(S(C)(=O)=O)SC3=NC2=O)cc1	-1.58
C=CCOc1ccc(C=C2C(=O)N(C)C(=O)N(C)C2=O)cc1OCC	-1.93
CCCCN(CCNC(=O)Cn1ncc2c3ccccc3n(CCC)c2c1=O)Cc1ccco1	-2.21
Cc1nn(CCCC(=O)N2CCN(c3ccccn3)CC2)c(=O)c2c1sc1ccccc12	-4.93
COc1ccc2nc(NC(=O)C(NS(=O)(=O)c3cccs3)c3ccccc3)sc2c1 (stereo not shown)	-2.65
O=C(O)CCCNC1=C(Cl)C(=O)c2ccccc2C1=O	-2.14
CN(C)CCC(O)(c1ccccc1)c1ccccc1	0.00784
COc1ccc(NC(=O)c2cccs2)c(OC)c1	-1.62
Cc1nn(CC(=O)NCCCN2CC(C)CC(C)C2)c(=O)c2c1sc1ccccc12 (stereo not shown)	-5.61
COc1ccc(C2N(C(=O)CN3CCOCC3)CCN2S(=O)(=O)c2ccc(C)cc2)cc1 (stereo not shown)	-0.425
CCc1cc2c(cc3c(=O)n(CC(=O)NCc4ccccc4OC)nc(CC)n32)s1	-1.7
COc1ccc(-c2nn3c(C(F)(F)F)nnc3s2)cc1OC	-1.29
CCn1c(=N)n(CC(O)COc2ccc(Cl)cc2)c2ccccc21 (stereo not shown)	-3.39
CN1C(=O)NC(c2ccc(O)cc2)C2=C1CN(Cc1ccco1)C2=O (stereo not shown)	0.9
COc1cc(NC(=O)C23CC4CC(C2)CC(n2cnc(Br)n2)(C4)C3)cc(OC)c1OC	3.57

From PMC6919601, “Identification of Plasmodium dipeptidyl aminopeptidase allosteric inhibitors by high throughput screening” (PLoS ONE, 2019)
